# Data from the supplement of paper PMC5655136.
# These are enrichments in a pooled selection; single values are uncertain.
# System: NB7
# Experiment: fold depletion of shRNA, plasmid library share / infected cells without Dox share (9 days) (ratio); higher = more depleted after infection (more toxic, leaky expression from a Tet-inducible vector; NB7 is a neuroblastoma line without caspase-8)
# Details: shRNA pool: CD95L ORF + CD95L 3'UTR + Venus libraries
# Experimental: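 Pooled lethality screen in NB7 neuroblastoma cells infected with Dox-inducible pTIP shRNA libraries. The libraries tile every 21-mer of the Venus, CD95L or CD95 ORF / 3'UTR; each hairpin is the 21-nt sense sequence + CTCGAG loop + antisense. Cells were cultured 9 days with or without 100 ng/ml Dox. shRNA representation was measured by deep sequencing of the genomic inserts, normalised to the total reads per subpool and averaged over technical replicates. Fold depletion is the plasmid library share / infected cells without Dox share (mean of 2 biological replicates), and the -Dox/+Dox share ratio is the mean of 4 replicate pairings; higher values mean more depletion (toxicity).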
# 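Further: shRNA barcodes quantified by deep sequencing of PCR amplicons from cellular DNA, counts expressed as percent of each subpool, ratio averaged over two biological duplicates.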
row,Sequence,fold depletion of shRNA
1,CAGCCCTTCAATTACCCATAT,1.23
2,CCTATAATATAATAAATATTT,1.76
3,ACTCTGGGCTGCCATGTGAAG,2.29
4,TGTCTTTCAGATACATGGTTG,1.19
5,GGTTCAAAATGTCTGTAGCTC,1.36
6,TCTAAATGCATATCCTGAGCC,5.19
7,CCAGATCTACTGGGTGGACAG,13.2
8,GAAGACATGAACCAAGTGGAC,4
9,TGCCCCACTGGCAGCATCTTC,2.46
10,TAGTGCCTGAGAGTATTTAGG,0.815
11,CTTCAAGGAGGACGGCAACAT,1.15
12,CGTCTATATCACCGCCGACAA,2.24
13,TCACCGCCGACAAGCAGAAGA,0.994
14,AATAAATATTTATGTAGATGT,1
15,CCCATTTAACAGGCAAGTCCA,1.07
16,ACCGGCAAGCTGCCCGTGCCC,1.32
17,TGCATAATAAGCTAAAGAGGC,1.75
18,ATCCCCAGATCTACTGGGTGG,1.04
19,GAATGTAGATATTGTGAAGTA,0.795
20,TCTCAAGGTGGGCCTTGCTAC,2.61
21,CTACAACAGCCACAACGTCTA,3.68
22,AGCTGTTCACCGGGGTGGTGC,1.18
23,GGCCTGCAGTGCTTCGCCCGC,2.12
24,GGCGAGGGCGATGCCACCTAC,0.801
25,GGGGCAGTGTTCAATCTTACC,0.389

row,Sequence,fold depletion of shRNA
1,TAACACAGCATGTGTATTTCC,1.38
2,ATGAAACTGGGCTGTACTTTG,0.689
3,CGACGGCAACTACAAGACCCG,0.734
4,TCATTTATATGTCAACGTATC,0.619
5,CGGCAAGCTGACCCTGAAGCT,0.98
6,CTCCTCAACTCACCTAATGTT,8.78
7,GGCAACATCCTGGGGCACAAG,1.67
8,TTCTTTCCATTATGATTCTTT,0.861
9,CTTCCTGACAATCAACTCTAA,4.15
10,TGCTGATCATTTATATGTCAA,0.658
11,ATCACATGGTCCTGCTGGAGT,3.07
12,GTGATCAATGAAACTGGGCTG,2.27
13,TTCAGATACATGGTTGTGACC,2.77
14,CTACCAGCCAGATGCACACAG,0.498
15,TTCTACACTCATCTTAGTGCC,2.96
16,GATGTTTCAGCTCTTCCACCT,1.19
17,CAAGGTGGGCCTTGCTACCTC,0.932
18,GCCGCCGCCACCACTGCCTCC,0.139
19,ACCATCTTCTTCAAGGACGAC,10.3
20,GCGACGGCCCCGTGCTGCTGC,0.291
21,TTTTGTGAAATGAAAACATGT,1.6
22,GACTTCTTCAAGTCCGCCATG,0.642
23,TGCTGGAGTTCGTGACCGCCG,1.79
24,TGAGCTACCAGTCCGCCCTGA,2.09

# Same assay, conditions: shRNA pool: CD95 ORF + CD95 3'UTR + Venus libraries
row,Sequence,fold depletion of shRNA
1,GATTCTTAATAGCTGGCTGTA,1.45
2,ATCCTACGTTTAAATATCTTT,0.852
3,GCCACTTTGCCTCTAAATTAC,2.79
4,GAATTCACATAGAAAACATTA,1.04
5,CTCAGAACTTGGAAGGCCTGC,2.49
6,ACTTCATCAAGAGTAAATGCA,1.14
7,TGAGTATATGCAATTAGTGTT,1.14
8,CTGACATCAACTCCAAGGGAT,2.68
9,AGCAGAACAGAAAGTTCAACT,1.34
10,AGAAGGGAAGGAGTACACAGA,1.44
11,GAAAAACAACAAATTCAGTTC,1.03
12,GAACTTCCATTTATGGAGGAT,1.79
13,ATGGTGTCAATGAAGCCAAAA,1.52
14,AGGCCACTTTGCCTCTAAATT,0.929
15,TTAGGAATTGCTCTTGTCATA,2
16,CTCACCAGCAACACCAAGTGC,0.735
17,CTTCAAGGAGGACGGCAACAT,1.27
18,TAATTAAATAATGTTTTTGGT,1.8
19,CCAAGTGCAGATGTAAACCAA,1.58
20,CGTCTATATCACCGCCGACAA,1.18
21,ATTCTTATTTTTCCCCCACCC,1.4

row,Sequence,fold depletion of shRNA
1,TCACCGCCGACAAGCAGAAGA,0.816
2,ACCGGCAAGCTGCCCGTGCCC,1.11
3,CTCGGCATGGACGAGCTGTAC,0.992
4,ATTTGTAGATTTTTAATATCT,0.988
5,TGAAAGATTAAGATTATGCTC,0.825
6,ATGGCCAATTCTGCCATAAGC,1.08
7,CTCTCAGAGAAAGTAGCTTTG,1.84
8,TGGCTGTAAATACTGCTTGGT,1.54
9,ATTATATATGTGTATGCATTT,0.781
10,AATGGGGATGAACCAGACTGC,2.15
11,ATATCACCAAAAAATACTTAA,1.76
12,CTACAACAGCCACAACGTCTA,2.82
13,AGCTGTTCACCGGGGTGGTGC,0.997
14,GGCCTGCAGTGCTTCGCCCGC,1.09
15,TGCTACAAATGGCAGCTTATA,1.63
16,AGAGAAAGTAGCTTTGTGACA,2.6
17,CATACCCCCAAGTTTCTAAGA,0.855
18,GGCGAGGGCGATGCCACCTAC,0.659
19,ATATTTCTAAACTTTGTTTAT,0.968
20,ATGTTGACTTGAGTAAATATA,0.934
21,CTGTGAAGATAGTTATAAACT,0.756

row,Sequence,fold depletion of shRNA
1,AAAAGCATTTTGAGCAGGAGA,1.68
2,GATGTTGACTTGAGTAAATAT,0.952
3,CTGGACCCTCCTACCTCTGGT,3.42
4,CCCCGAAAATGTTCAATAATG,1.74
5,TATGACACATTGATTAAAGAT,1.39
6,GGGATGAACCAGACTGCGTGC,0.852
7,AAAACATGCAGAAAGCACAGA,1.11
8,CGACGGCAACTACAAGACCCG,1.16
9,AAATAGGAGTGTATGCAGAGG,2.88
10,CTGCTTCGTAATTGGCATCAA,2.31
11,TGGAAATATCACCAAAAAATA,1.34
12,ATTTTTCCCCCACCCCCGAAA,5.11
13,ACCCCACTCTATGAATCAATA,1.59
14,CGGCAAGCTGACCCTGAAGCT,0.869
15,AGATGTAGATTGTGTGATGAA,1.16
16,GGCAACATCCTGGGGCACAAG,2.12
17,TAAAAGTACGTAATTAAATAA,1.65
18,GGAAAACAAACTTCATCAAGA,1.33
19,CCCCCAAGTTTCTAAGATTTA,3.66
20,TGCCCTTAGAAATTCTAGCCT,1.35
21,TGCGTGCCCTGCCAAGAAGGG,0.771

row,Sequence,fold depletion of shRNA
1,ATCACATGGTCCTGCTGGAGT,1.99
2,ATATAGGTAAAAGTACGTAAT,0.961
3,ATTTATATTTCTGTAAATGTA,1.13
4,TGCTGAAATATCAGTTACTGA,1.24
5,AAAGTATATGTATTTGAGTGC,2.38
6,CTGGAACCACCTAAAGAACTT,6.6
7,TTTTACTGGGTACATTTTATC,0.905
8,CAGAGAAAATTCAGACTATCA,0.812
9,GCGACGGCCCCGTGCTGCTGC,0.659
10,TTGCCTTGGTGCTCATCTTAA,10.9
11,CGTAATTGGCATCAACTTCAT,7.67
12,GACTTCTTCAAGTCCGCCATG,2.75
13,AGATGTAAACCAAACTTTTTT,0.862
14,AAACAAACTTCATCAAGAGTA,0.967
15,TGCTGGAGTTCGTGACCGCCG,0.954
16,TGTTCAATAATGTCCCATGTA,0.916
17,ATTCTTAATAGCTGGCTGTAA,0.853
18,TGAATTTTAAGAAATAATATT,1.07
19,AGCTAGGGACTGCACAGTCAA,0.697
20,TGAGCTACCAGTCCGCCCTGA,0.953
